Out of some 310,000 compounds screened, about 14,000 (4.5%) showed an effect of 50% or more. Effects have a minus sign here. The list shows a part of the results.
Each compound was assayed against human ether-à-go-go-related gene (hERG) potassium channel (human, UniProt Q12809) (assay: primary screen, population patch clamp on CHO cells stably expressing hERG).
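Further: peak tail current of the secondary pulse compared with the same well before compound.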

Sequence of human ether-à-go-go-related gene (hERG) potassium channel (Q12809 whole entry, looked up): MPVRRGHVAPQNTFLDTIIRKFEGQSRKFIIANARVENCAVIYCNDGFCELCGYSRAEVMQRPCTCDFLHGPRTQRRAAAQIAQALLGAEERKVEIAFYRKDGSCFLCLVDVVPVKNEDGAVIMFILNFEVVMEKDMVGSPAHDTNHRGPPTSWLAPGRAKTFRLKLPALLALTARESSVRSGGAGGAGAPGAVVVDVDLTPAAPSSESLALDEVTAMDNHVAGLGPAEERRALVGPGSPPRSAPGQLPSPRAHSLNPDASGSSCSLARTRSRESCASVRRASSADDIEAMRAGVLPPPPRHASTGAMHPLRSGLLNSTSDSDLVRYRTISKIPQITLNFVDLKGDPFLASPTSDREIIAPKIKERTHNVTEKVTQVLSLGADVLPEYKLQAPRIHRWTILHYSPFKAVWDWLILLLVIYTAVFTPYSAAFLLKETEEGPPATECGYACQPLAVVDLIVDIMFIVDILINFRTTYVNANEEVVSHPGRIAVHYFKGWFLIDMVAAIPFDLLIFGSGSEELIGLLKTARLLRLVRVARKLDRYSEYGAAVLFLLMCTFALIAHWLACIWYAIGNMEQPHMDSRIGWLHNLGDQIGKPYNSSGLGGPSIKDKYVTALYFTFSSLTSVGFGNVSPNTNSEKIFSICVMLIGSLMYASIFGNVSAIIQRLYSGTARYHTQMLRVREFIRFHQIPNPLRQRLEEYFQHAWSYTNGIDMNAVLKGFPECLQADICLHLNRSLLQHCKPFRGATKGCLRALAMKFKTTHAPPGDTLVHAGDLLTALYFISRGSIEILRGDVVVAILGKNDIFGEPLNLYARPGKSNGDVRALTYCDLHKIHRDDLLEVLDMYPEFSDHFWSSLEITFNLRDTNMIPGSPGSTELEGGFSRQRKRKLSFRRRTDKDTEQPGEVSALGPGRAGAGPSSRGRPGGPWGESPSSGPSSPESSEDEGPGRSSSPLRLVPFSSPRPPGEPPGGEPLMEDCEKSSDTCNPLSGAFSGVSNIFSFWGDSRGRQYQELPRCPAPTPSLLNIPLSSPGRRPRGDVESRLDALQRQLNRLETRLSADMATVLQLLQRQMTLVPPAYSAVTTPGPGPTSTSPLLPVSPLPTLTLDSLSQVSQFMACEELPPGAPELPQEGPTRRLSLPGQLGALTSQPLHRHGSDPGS

SMILES | hERG current change (%, negative = inhibition) at 10uM
O=C(CSc1nc(=O)n(CCCN2CCOCC2)c2c1CCC2)Nc1cccc(F)c1 | -37.4%
CC(C)c1ccc(NC(=O)CSc2nnc(CN3CCOCC3)n2C)cc1 | 15.4%
NC(=S)N/N=C/c1c(O)ccc2ccccc12 | 12%
Cc1ccc(C)c(S(=O)(=O)N2CCN(C(=O)Nc3ccccc3)CC2)c1 | -26.1%
CCN1C(=O)[C@H]2[C@@H](c3ccc(-c4ccc(OC)cc4)c(OC)c3)N[C@@](C)(C(=O)OC)[C@H]2C1=O.O=C(O)C(F)(F)F | 14.4%
COc1cccc(Nc2ncc(C(=O)O)c3ccccc23)c1 | -1.48%
COc1ccc(S(=O)(=O)Nc2cc(C(=O)NCCC(C)C)ccc2N2CCOCC2)cc1 | -15.3%
C=CCN(CC=C)S(=O)(=O)c1ccc(C(=O)Nc2sc3c(c2C(N)=O)CCCCC3)cc1 | 7.75%
CSc1ccc(S(=O)(=O)NCC(=O)OCC(=O)N(Cc2ccccc2)C(C)C)cc1[N+](=O)[O-] | -15.2%
N#CC1=C(N)Oc2cc(O)ccc2C1c1ccc(Br)s1 (stereo not drawn) | 20.3%
Cc1nn(CC(=O)N2CCc3ccccc3C2)c(C)c1Cl | 6.96%
O=C(O)c1ccccc1NC(=O)c1cc(-c2ccccc2)nc2ccccc12 | 4.95%
CC1CCCC(NC(=O)COC(=O)CCc2ccccc2)C1C (stereo not drawn) | 27.1%
O=C(Nc1nc(-c2ccc(F)cc2)cs1)c1ccc(N2C(=O)CCC2=O)cc1 | 7.15%
COc1ccc(S(=O)(=O)Nc2ccc(F)c(Cl)c2)cc1OC | 7.26%
Cc1ccc(Cn2nnnc2CN2CCC(n3nnc4cc(C)ccc43)CC2)cc1 | -65.2%
COc1ccc(CC(=O)Nc2ccc(N(C)C)c3ccccc23)cc1 | 0.703%
COc1cccc(COC(=O)C2CCN(S(=O)(=O)c3ccc(Cl)cc3)CC2)c1OC | -1.49%
O=C1/C(=C/c2cccnc2)Sc2ccccc21 | 4.72%
CN(Cc1ccccn1)C(=O)CC1C(=O)NCCN1Cc1cccc(Oc2ccccc2)c1 (stereo not drawn) | 3.2%
CC(C)C(NC(=O)c1c(F)cccc1F)C(=O)NCCc1ccc(S(N)(=O)=O)cc1 (stereo not drawn) | 4.56%
COc1ccc(-c2cc(-c3cccs3)c(C#N)c(SCC(=O)NCc3ccccc3)n2)cc1 | 8.07%

SMILES | hERG current change (%, negative = inhibition) at 10uM
O=C(NC(=S)Nc1ccc2[nH]c(=O)[nH]c2c1)c1ccccc1[N+](=O)[O-] | -8.83%
O=C(CNCc1ccco1)Nc1cc(S(=O)(=O)N2CCOCC2)ccc1N1CCCC1 | -14.4%
COc1ccc(S(=O)(=O)N2CCOC2CNC(=O)C(=O)NCc2ccccc2Cl)cc1 (stereo not drawn) | 0.139%
O=C(NCc1ccncc1)c1cc(C(=O)C2CCCCC2)c[nH]1 | 19.8%
Cc1cccc(NC(=O)C2CCCN(S(=O)(=O)c3ccc4[nH]c(=O)ccc4c3)C2)c1 (stereo not drawn) | -3.99%
CCOc1ccc(N=C2SCCCN2C)cc1.I | 7.92%
CCN1C(=O)C(=O)N(CC(=O)Nc2ccccc2OC(F)F)C1=O | 12.1%
O=C(NCc1ccc(F)cc1)C1CCCN(c2nc3ccsc3c(=O)s2)C1 (stereo not drawn) | -15.8%
O=C(CNS(=O)(=O)c1ccccc1)NCC(=O)OCc1ccc(C(=O)c2ccccc2)cc1 | -61.6%
Cc1cc(CNC(=O)Cc2c(F)cccc2Cl)nn1C | 1.93%
Cn1cnnc1SCC(=O)Nc1ccc(N2CCCCC2)cc1 | 9%
O=C(O)c1ccccc1Nc1ccc([N+](=O)[O-])cc1C(=O)O | 5.75%
Fc1cc(F)c(F)c(SCCc2ccncc2)c1F | 0.775%
CCN1CCN(C(=O)c2c(-c3c(F)cccc3Cl)noc2C)CC1.Cl | 9.61%
O=S(=O)(c1ccccc1)N(Cc1ccc(Cl)cc1)c1ccncc1 | -6.02%
FC(F)(F)c1ccc(Cl)c(-n2c(-c3cc(C4CC4)[nH]n3)n[nH]c2=S)c1 | 10.2%
O=C(CCC(=O)N1CCN(c2ccc(Cl)c(Cl)c2)CC1)c1ccccc1 | -16%
Cc1c(C(=O)NC2CCCCC2C)oc2ccccc12 (stereo not drawn) | 13.4%
COc1ccc(S(=O)(=O)N2CCN(C)CC2)cc1C | 7.28%
COc1ccc(CCn2c(C)nc3ccccc3c2=O)cc1OC | 5.91%
O=C(COC(=O)c1ccc(OC(F)F)cc1)Nc1cccc(S(=O)(=O)NC2=NCCC2)c1 | -11.2%
COC(=O)c1ccc2c(c1)SC1=C(CCCC1=O)N2 | 7.74%

SMILES | hERG current change (%, negative = inhibition) at 10uM
C=CCNC(=O)NC(=O)COC(=O)CCCSc1nc2ccccc2[nH]1 | -0.419%
CCOc1ccc(S(=O)(=O)NCCC(=O)NC2=NCCS2)cc1 | 0.345%
COc1ccc2oc(=O)c(C(=O)N3CCN(c4ccccc4C)CC3)cc2c1 | -0.135%
Cc1ccc(C)c(NC(=O)CN(C)C(=O)c2sccc2C)c1 | 16%
O=C1CN(C(=O)COc2ccccc2)CCN1 | -1.73%
CCOC(=O)N1CCN(C(=O)Nc2ccc3nc(C)sc3c2)CC1 | 4.07%
O=c1cc(CN2CCC3(CC2)OCCO3)c2c(ccc3ccccc32)o1 | -0.583%
O=C(Nc1ccc2cn[nH]c2c1)c1ccc(S(=O)(=O)N2CCOCC2)cc1 | -19.7%
Cc1cccc(N(C(=O)c2snc(C(N)=O)c2N)C(C(=O)NCC2CCCO2)c2ccc3ncccc3c2)c1 (stereo not drawn) | -19.4%
COc1ccc(CNC2CCCc3ccccc32)cc1OC.O=C(O)C(=O)O (stereo not drawn) | -25.3%
COc1ccc(N2C(=O)c3ccccc3NC2c2ccc(NC(C)=O)cc2)c(OC)c1 (stereo not drawn) | 18.8%
COc1ccc(O)c(/C=N/n2c(-c3ccco3)csc2=Nc2cccnc2)c1 | 15.9%
O=C(CSc1nc(N2CCOCC2)nc(N2CCOCC2)n1)Nc1cccc(C(F)(F)F)c1 | 16.5%
COc1cc2nc(=S)n3[nH]c(COc4ccccc4C)nc3c2cc1OC | -0.537%
CCOC(=O)c1c(C)[nH]c(C(=O)Nc2ccc(C)c(Cl)c2)c1C | 10.8%
O=C(CNCc1ccc(Cl)cc1)Nc1ccc(C(=O)N2CCCCCC2)cc1.O=C(O)C(=O)O | -2.06%
CCOc1ccccc1NC(=O)CSc1ccc2nnc(-c3cccnc3)n2n1 | -61.9%
COc1ccc2[nH]c(=O)c(C(c3nnnn3CC3CCCO3)N3CCCCC3)cc2c1 (stereo not drawn) | 13.6%
CC1(COS(N)(=O)=O)CCCCC1 | 1.76%
CCCN1CCN(CCCNC(=O)Cn2ncc3c4ccccc4n(C)c3c2=O)CC1 | -56.6%
O=C(O)/C=C\C(=O)O.c1ccc(C(OCCN2CCN(c3ncccn3)CC2)c2ccccc2)cc1 | -65.9%
CCOC(=O)CSc1ncnc2c1nnn2-c1ccc(F)cc1 | 1.59%

SMILES | hERG current change (%, negative = inhibition) at 10uM
S=c1[nH]nc(-c2ccco2)n1/N=C/c1ccc(Cl)cc1Cl | -45.5%
CCc1nn(CC(=O)N2CCN(c3ccc(F)cc3)CC2)c(=O)c2cc3occc3n12 | -0.597%
COc1ccc(C2CC(=O)c3sc(NC(C)=O)nc3C2)cc1 (stereo not drawn) | -1.49%
CCC(CO)NS(=O)(=O)c1cc(-c2nn(C)c(=O)c3ccccc23)ccc1C (stereo not drawn) | -3.69%
Cc1ccc(S(=O)(=O)N2CCCC2CNC(=O)C(=O)Nc2ccccc2)cc1 (stereo not drawn) | -1.63%
O=C(NCc1cccs1)C1CCCN1C(=O)Nc1ccccc1Cl (stereo not drawn) | -13%
COCCNc1nnc(SCC(=O)NC(=O)c2ccccc2OC)s1 | 1.75%
COc1ccc(NC(=O)/C(C#N)=C/c2c(C)nn(-c3ccc(F)cc3)c2Cl)cc1OC | 12.1%
Cc1c(C(=O)NN)sc(=S)n1C | 13.2%
O=[N+]([O-])c1cccc(C(=S)N2CCCC2)c1 | 15.6%
O=C(CSc1nc2ccccc2s1)NC1CCS(=O)(=O)C1 (stereo not drawn) | 12.9%
S=C(NC1CC1)SCc1ccco1 | -11.5%
COc1ccc(S(=O)(=O)N2CCC(C(=O)NCc3ccncc3)CC2)cc1 | -8.83%
CCOC(=O)c1c(/N=C/C2C(=O)CCCC2=O)sc2c1CCCC2 | 11.1%
Cc1ccc(N2C(=O)c3ccccc3C(C)(C)C2=O)cc1 | 9.5%
CNCCOc1nc(N2CCOCC2)nc(C)c1[N+](=O)[O-] | 13.9%
COc1cccc(CNC(=O)CCS(=O)(=O)c2ccc3c(c2)oc(=O)n3C)c1 | 3.87%
COc1cccc(OC)c1C(=O)Nc1ccc(C)cc1C(=O)c1ccccc1 | -8.33%
CCCC(C)NC(=O)c1ccc(F)cc1 (stereo not drawn) | 13.2%
CCn1c(SCC(=O)Nc2nc(-c3ccccc3)cs2)nnc1-c1ccccc1 | -66.6%
Nc1nc(-c2ccccc2)c(-c2ccccc2)s1 | -2.18%

— paper PMC4336329 (PLoS ONE, 2015)
